Experimental data taken from PubChem BioAssay AID1631 (National Center for Advancing Translational Sciences (NCATS), 2009).
Screen size: about 260,000 compounds; about 890 (0.34%) were called active. This list was built around the results that the source calls inconclusive (neither active nor inactive); the mix of calls is not that of the screen. The call rests on the fitted dose curve; in most records, active means well fitted activation curve with a large enough effect; inconclusive means small, poorly fitted or top-dose-only effect; inactive means no such curve, though single readings can be large or run the other way. No potency is given beside an inconclusive call; the fits are too rough.
Further: nearly all actives have a fitted effect of over 55% in size.
On the % scale 0 is the no-effect control and ±100 the full control effect; potency means the concentration at half of the fitted maximal effect; tags describe the fitted curve by direction and shape.

Each molecule was assayed against Pyruvate kinase PKM (Homo sapiens) (UniProt P14618) (assay: qHTS Assay for Activators of Human Muscle isoform 2 Pyruvate Kinase). Settings: purified PKM2, Kinase-Glo ATP luminescence; Potency: activation; activation: at 57.5 µM (top of the series), 0% is enzyme alone, no compound.
Chain of UniProt P14618 (P14618 whole entry, looked up, canonical isoform): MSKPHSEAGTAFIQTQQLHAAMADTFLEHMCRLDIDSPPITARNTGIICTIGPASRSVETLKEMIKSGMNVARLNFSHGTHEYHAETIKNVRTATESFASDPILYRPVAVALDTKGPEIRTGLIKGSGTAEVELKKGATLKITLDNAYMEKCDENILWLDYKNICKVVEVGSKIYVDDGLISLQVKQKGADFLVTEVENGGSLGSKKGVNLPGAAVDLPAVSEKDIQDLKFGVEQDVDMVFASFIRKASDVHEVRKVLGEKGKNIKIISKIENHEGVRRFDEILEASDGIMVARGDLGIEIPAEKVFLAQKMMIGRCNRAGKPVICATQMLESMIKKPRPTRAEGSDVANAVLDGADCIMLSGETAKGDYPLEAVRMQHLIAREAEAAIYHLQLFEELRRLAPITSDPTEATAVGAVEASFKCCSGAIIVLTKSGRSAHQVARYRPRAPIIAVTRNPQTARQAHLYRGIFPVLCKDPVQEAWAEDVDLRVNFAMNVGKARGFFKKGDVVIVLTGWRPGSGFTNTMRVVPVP
Procedure, shortened: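 Kinase-Glo luminescence reports ATP generated from ADP (0.1 mM) and PEP (0.5 mM) by purified hPK-M2 after 1 h at room temperature, pH 7.2 imidazole buffer; intermediate enzyme activity allows detecting inhibitors and activators.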
With `COc1ccc(C(=O)OCC(=O)NCc2ccccc2)c(OC)c1OC` the Potency was inconclusive [rising, single point]. With `COc1ccc(N2C(=O)[C@@H]3[C@H](C2=O)[C@H]2C=CC=NN2[C@@H]3C(=O)Nc2ccc(Cl)cc2)cc1` the Potency was active: 8.91 µM. With `Cc1cccc(N=C2NC(=O)/C(=C/C=C/c3ccco3)S2)c1` the Potency was inconclusive [rising, partial curve]. With `Cc1cc(=O)[nH]c(SCC(=O)Nc2cccc3ccccc23)c1C#N` the Potency was inconclusive [rising, partial curve]. In the case of `CCS(=O)(=O)N1Cc2ccccc2CC1C(=O)Nc1nccs1` (configuration not stated), the “activation” value is reported as inactive: -0.348%. In the case of `C=CCN1CCc2c(cc(O)c(O)c2Cl)C(c2cccc(C)c2)C1` (configuration not stated), the Potency is reported as inconclusive [rising, partial curve]. For `Cc1cccc(NC(=O)CSc2nsc(SCC(=O)Nc3cccc(C)c3)c2C#N)c1`, the “activation” value was inactive: -0.911%. For `COc1ccccc1OCC(=O)NCCSCc1ccccc1Cl`, the “activation” value was inactive: -11.1%. In the case of `CCCCn1c(Cc2ccccc2)nnc1SCC(=O)N1CCOCC1`, the Potency is reported as inconclusive [rising, single point]. In the case of `NS(=O)(=O)c1ccc(Sc2nc3ccccc3s2)c([N+](=O)[O-])c1`, the Potency is reported as inconclusive [rising, single point]. `CCOc1cccc(C2C(C(=O)c3ccc(C)o3)=C(O)C(=O)N2Cc2ccncc2)c1` (configuration not stated) was tested, and the Potency was inconclusive [rising, full curve, poor fit]. `O=C(NCc1nc(-c2ccc(C(F)(F)F)cc2)no1)Nc1ccc(OC(F)(F)F)cc1` was tested, and the Potency was inconclusive [rising, single point]. `COc1cc2cc(C(=O)Nc3ccccc3)c(N)nc2cc1OC` was tested, and the “activation” value was inactive: -2.72%. `O=C(OCC(=O)N1CCN(C(=O)c2ccco2)CC1)c1cc(-c2ccc(Cl)c(Cl)c2Cl)nc2ccccc12` was tested, and the Potency was inconclusive [rising, single point]. With `Cc1ccc(NS(=O)(=O)c2cc3[nH]c(=O)c(=O)[nH]c3cc2C)c(C)c1` the Potency was inconclusive [rising, partial curve]. For `COc1cc(OC)cc(C(=O)Nc2ccc([N+](=O)[O-])cn2)c1`, the “activation” value was inactive: 6.26%. With `CCc1ccc(C(C)NC(=O)c2cc(C)oc2C)cc1` (configuration not stated) the Potency was inconclusive [rising, partial curve]. For `CC(NC(=O)CCCCCCN1C(=O)c2ccccc2C1=O)c1ccc2c(c1)CCCC2` (configuration not stated), the Potency was inconclusive [rising, single point]. `CC(=O)/C(=N\Nc1ccccc1)Sc1cccc2cccnc12` was tested, and the “activation” value was inactive: -3.44%. `c1ccc(Cn2c(-c3cncs3)nc3ccccc32)cc1` was tested, and the “activation” value was inactive: -11.5%. `Clc1ccc2nc(CN3CCCc4ccccc43)cn2c1` was tested, and the Potency was inconclusive [rising, single point]. `COc1cccc(Nc2ncccc2C(=O)O)c1` was tested, and the Potency was inconclusive [rising, single point]. For `COc1ccc(OCCC(=O)N2CCN(C)CC2)cc1`, the “activation” value was inactive: -3.07%. For `COC(=O)c1ccc(C2C(C#N)=C(C)NC3=C2C(=O)CC(C)(C)C3)cc1` (configuration not stated), the “activation” value was inactive: -4.17%. `O=C1c2oc3ccccc3c(=O)c2C(c2cccnc2)N1Cc1ccco1` (configuration not stated) was tested, and the Potency was inconclusive [rising, single point]. `O=C(c1ccc(Cn2c(=O)[nH]c3ccccc3c2=O)cc1)N1CCN(c2ccccn2)CC1` was tested, and the “activation” value was inactive: -6.27%. For `c1cc(-c2nnc(-c3ccncc3)o2)ccn1`, the Potency was inconclusive [rising, single point]. With `Cc1c(C)c2c(OCC(=O)Nc3ccc(CCO)cc3)cc3c(c2oc1=O)CCC(C)(C)O3` the Potency was inconclusive [rising, single point]. With `CCN(CC)C(=O)c1cc(-c2ccc(Br)cc2)on1` the “activation” value was inactive: -1.31%. With `CCN1C(=O)C(CC(=O)Nc2ccc(F)cc2)N(Cc2cccs2)C1=S` (configuration not stated) the Potency was inconclusive [rising, partial curve]. In the case of `CCc1cccc(NS(=O)(=O)c2ccc3c(c2)NC(=O)CO3)c1`, the Potency is reported as inconclusive [rising, partial curve]. In the case of `COc1ccc2nc(C)cc(C(=O)O)c2c1`, the “activation” value is reported as inactive: -8.33%. In the case of `CNC(=S)N(CCc1ccc(OC)c(OC)c1)C1CC(=O)N(c2ccccc2)C1=O` (configuration not stated), the Potency is reported as inconclusive [rising, single point]. For `O=C(/C=C/Nc1ccccc1O)c1ccco1`, the “activation” value was inactive: -15.9%. With `O=S(=O)(NCc1cccnc1)c1ccc(Cl)c(Cl)c1Cl` the Potency was inconclusive [rising, single point]. `Nc1ccccc1N=Cc1ccc(-c2cccc(Cl)c2)o1` was tested, and the Potency was active: 28.2 µM. `CCOC(Cn1ccc(=O)[nH]c1=O)OCC` was tested, and the Potency was inconclusive [rising, single point]. In the case of `COc1cccc(C(C(=O)NCC2CCCO2)N(CC2CCCO2)C(=O)CN2C(=O)c3ccccc3S2(=O)=O)c1` (configuration not stated), the Potency is reported as inconclusive [rising, single point]. `COc1ccc(NC(=O)CSc2nnc(-c3ccco3)c(-c3ccco3)n2)cc1OC` was tested, and the Potency was inconclusive [rising, single point]. `Cc1c(O)c(O)cc2c1oc1c3ccccc3oc(=O)c21` was tested, and the Potency was inconclusive [rising, full curve]. In the case of `CCc1ccc(S(=O)(=O)Nc2cc(SCC(=O)O)c(O)c3ccccc23)cc1`, the Potency is reported as inconclusive [rising, partial curve]. In the case of `CC(C)n1c(SCC(=O)Nc2ccccc2)nc2c1c(=O)[nH]c(=O)n2C`, the Potency is reported as active: 8.91 µM. `C/C=C\C=C\C(=O)N1CC2(CC(c3cccc(NC(=O)/C(C)=C\C)c3)=NO2)C[C@H]1C(N)=O` (some centres not stated) was tested, and the Potency was active: 3.55 µM. For `CC(C)Cc1nc(N2CCN(C(=O)c3ccco3)CC2)c(C#N)c2c1CCC2`, the Potency was active: 22.4 µM. `Cn1c(=O)n(C)c2cc(S(=O)(=O)NCc3ccco3)ccc21` was tested, and the Potency was inconclusive [rising, partial curve]. In the case of `COc1ccc(CC(=O)Nc2ccc(S(=O)(=O)Nc3nccs3)cc2)cc1`, the Potency is reported as active: 14.1 µM. For `CN1CCN(S(=O)(=O)c2ccc(NC(=S)NC(=O)C3CCCC3)cc2)CC1`, the “activation” value was inactive: 3%.
